Assay results reported in PubChem BioAssay AID1508642 (National Center for Advancing Translational Sciences (NCATS), 2021).
The campaign covered roughly 43,000 compounds. About 200 (0.47%) were called active. Roughly 12% stayed inconclusive and do not appear here. Calls follow the shape of the dose curve; as a rule, active = well fitted cell-killing curve with a large enough effect; inconclusive = small, poorly fitted or top-dose-only effect, or effect the other way; inactive = flat fitted curve, though single readings scatter. The list shows a part of the results.

test: Cell viability qHTS assay in S16 Pmp22-F2sN cells; details: S16 Pmp22-F2sN Schwann cells (luciferase reporters placed in the Pmp22 gene) viability, CellTiter-Glo, 24 h; series mostly up to 57.5 µM; activity change, negative = cytotoxicity: at the top concentration; also: nearly all actives have a fitted effect of over 65% in size
Outline: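 Seed 500-1,000 S16 Pmp22-F2sN cells per well in phenol-red-free DMEM with 10% heat-inactivated FBS; pin-add 23 nL compound; incubate 24 h at 37C; add CellTiter-Glo, wait 15 min protected from light; read luminescence.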
% is scaled to controls: 0 for no effect and ±100 for the full control effect.

Row | Structure (SMILES) | activity change, negative = cytotoxicity
1 | Cc1ccc(-n2ncc3c(N(CC(C)C)CC(C)C)ncnc32)c(C)c1 | inactive: -5.62%
2 | O=C(COc1ccccc1[N+](=O)[O-])N1CCC(c2nc3ccccc3o2)CC1 | inactive: 1.02%
3 | Cc1c(CC(=O)NCCc2ccccc2F)c(=O)oc2cc(O)c(Cl)cc12 | inactive: 4.7%
4 | Cc1ccc(CCNC(=O)c2c(C)oc3nc(C)nc(N4CCOCC4)c23)cc1 | inactive: 2.48%
5 | CCN(CCCNC(=O)c1cc(Nc2ccc(OC)cc2OC)nc2ccccc12)c1cccc(C)c1 | inactive: -7.12%
6 | CC(C)OC(=O)c1c(NC(=O)COc2cccc(Br)c2)sc2c1CCCC2 | inactive: 3.27%
7 | O=C(CSc1nc2c([nH]c3ccccc32)c(=O)n1-c1ccccc1)N1CCOCC1 | inactive: 3.43%
8 | CC(CNC(=O)C1CCN(S(=O)(=O)c2ccc3c(ccn3C)c2)CC1)c1ccccc1 (configuration not stated) | inactive: 6.06%
9 | COc1ccc(-c2onc(C)c2C)cc1S(=O)(=O)N1CCN(c2ccc(Cl)cc2)CC1 | inactive: 4.59%
10 | Nc1nonc1C(=O)NCCNCc1cccc(Cl)c1Cl | inactive: -0.255%
11 | O=C1CC(c2cccc(O)c2)c2cc3c(cc2N1)OCO3 (configuration not stated) | inactive: 2.34%
12 | CCCCN(CC)CCCNC(=O)C1CCCN(c2ncnc3c2nc2n3CCCCC2)C1 (configuration not stated) | inactive: -3.44%
13 | CCn1c(C)c(C)c2cc(C(=O)NCc3ccc(OC)cc3OC)ccc21 | inactive: -25.3%
14 | CCN(CC)S(=O)(=O)c1ccc(NC(=O)c2c(C)oc3ncnc(N4CCOCC4)c23)cc1 | inactive: 8.3%
15 | COc1cccc2c1Oc1ncccc1N(C(=O)CCC(=O)NC(C)C)C2 | inactive: -3.4%
16 | CCC(=O)N1CCc2cc(CNS(=O)(=O)c3ccc(NC(=O)CC(C)C)cc3)ccc21 | inactive: -17.2%
17 | CCc1c(C)sc2c1CCN(C(=O)Nc1cc(Cl)c(OC)cc1OC)C2c1ccccc1 (configuration not stated) | inactive: -15.5%
18 | COc1ccc2c(c1)CC(C(=O)NCCCN1CCN(c3ccccc3F)CC1)CO2 (configuration not stated) | inactive: 0.685%
19 | CCC(=O)N1CCc2cc(Br)cc(S(=O)(=O)CCC(=O)Nc3ccc(C)c(F)c3)c21 | inactive: 9.22%
20 | C#CCn1cnc2c(cnn2-c2ccc(F)cc2)c1=O | inactive: 2.24%
21 | COc1cc(NC(=O)Cn2cnc3c2c(=O)n(C)c(=O)n3C)c(OC)cc1Cl | inactive: 13.1%
22 | CCOC(=O)c1c(NC(=O)/C(C#N)=C/c2ccccc2)sc2c1CCC2 | inactive: -9.39%
23 | Cc1cc(C)cc(NC(=O)Nc2ccccc2OCc2cc(=O)n3ccccc3n2)c1 | inactive: 15.9%
24 | CC(=O)Nc1ccc(NC(=O)c2cc3sccc3n2Cc2ccc(Cl)cc2)cc1 | inactive: 24.3%
25 | CCOc1ccc(NC(=O)c2c(NC(=O)c3ccccc3F)sc3c2CCC3)cc1 | inactive: -4.54%

Row | Structure (SMILES) | activity change, negative = cytotoxicity
26 | CCOc1cc(/C=C(\C#N)C(=O)Nc2ccc(C)cc2)ccc1OCc1cc(=O)n2nc(CC)sc2n1 | inactive: -4.69%
27 | CCOc1ccccc1NC(=O)c1c(NCc2cccs2)sc2c1CCCCC2 | inactive: -7.48%
28 | COc1cccc(Cn2c(SCC(=O)N(C)c3ccccc3)nc3ccccc32)c1 | inactive: 2.81%
29 | COc1cccc2cc(-c3csc(-c4ccc(Cl)cc4)n3)c(=O)oc12 | inactive: 2.26%
30 | Cc1ccc(CCNC(=O)c2cc(C)nc3c2c(C)nn3-c2ccc(C)cc2)cc1 | inactive: 14.9%
31 | O=C(Nc1ccc(C(F)(F)F)cc1)C1CCN(c2cnccn2)CC1 | inactive: -16%
32 | CCc1ccc(-n2nc(C)c3c(C(=O)Nc4cc(C)c(Cl)cc4OC)cc(C)nc32)cc1 | inactive: 4.77%
33 | CCc1ccc(-c2nn(CC(=O)NCc3ccccc3)c3c2cnc2ccc(C)cc23)cc1 | inactive: 1.38%
34 | O=C(CN1CCSc2ccccc21)N1CCCCC1 | inactive: 6.64%
35 | CCOc1ccccc1NC(=O)Cn1c(=O)n(-c2ccc(F)cc2)c(=O)c2c3c(sc21)CN(C(C)=O)CC3 | inactive: -5.95%
36 | Cc1ccc(-c2nc(CS(=O)(=O)CC(=O)NCc3ccc(Cl)cc3)c(C)o2)cc1 | inactive: -1.73%
37 | COC(=O)c1ccc(Cn2c(SCc3ccccc3)nc3ccncc32)cc1 | inactive: -2.48%
38 | Cc1cc(C(=O)Nc2cccc(F)c2)c2c(C)nn(-c3cccc(Cl)c3C)c2n1 | inactive: -10.5%
39 | CCOc1ccc(C(=O)Nc2ccccc2OCc2cc(=O)n3ccccc3n2)cc1 | inactive: 0.0159%
40 | Cc1ccccc1C(=O)OCc1cc(=O)n2c(C)csc2n1 | inactive: -52.1%
41 | CCc1nn(CC(=O)NCc2ccc(OC)c(OC)c2)c(=O)c2cc3sc(C)cc3n12 | inactive: 11.4%
42 | CCOC(=O)c1c(NC(=O)c2cc3nc(-c4ccccc4)cc(C(F)(F)F)n3n2)sc2c1CCC(C)C2 (configuration not stated) | inactive: -23.5%
43 | COc1ccc(CCNC(=O)c2nc(SCc3ccc(C)cc3)ncc2Cl)cc1OC | inactive: -5.69%
44 | CCOC(=O)Cn1c(=O)n(-c2ccccc2OC)c2nc(-c3ccccc3F)nc(C(N)=O)c21 | inactive: 21.1%
45 | COc1ccccc1OCCCCn1c(-c2ccc(Cl)cc2)nc2ccccc2c1=O | inactive: -0.734%
46 | CCOc1ccc(C(=O)Nc2ccc3oc(-c4ccc(Br)cc4)nc3c2)cc1 | inactive: 0.154%
47 | CCOC(=O)c1ccc(N2C(=O)Cc3cc(OCC)c(OCC)cc3C2c2ccccc2)cc1 (configuration not stated) | inactive: 25.2%
48 | CCOc1ccc(NS(=O)(=O)c2ccc3[nH]cc(C(=O)N4CCCCCC4)c(=O)c3c2)cc1 | inactive: -3%
49 | NC(=O)CSc1nnnn1-c1cccc(O)c1 | inactive: -0.122%
50 | COc1cccc(CN2C(=O)C3(SCC(=O)N3c3ccc(C(C)C)cc3)c3ccccc32)c1 (configuration not stated) | inactive: 2.97%

Row | Structure (SMILES) | activity change, negative = cytotoxicity
51 | Cn1c(SCc2ccccc2Cl)nc2c([nH]c3ccccc32)c1=O | inactive: 6.69%
52 | COc1ccc(N2CCN(C(=O)c3sc4nc5n(c(=O)c4c3C)CCC5)CC2)cc1 | inactive: 2.58%
53 | Cc1cccc(CCNC(=O)CCc2c(C)nc3ncnn3c2C)c1 | inactive: 2.37%
54 | COc1ccc(Cc2nc3ccc(C(=O)NCCCN4CCN(C)CC4)cc3o2)cc1 | inactive: 6.67%
55 | Cc1ccccc1-c1nc(SCC(=O)NCC2CCCO2)c2c(=O)n(C)c(=O)n(C)c2n1 (configuration not stated) | inactive: -0.73%
56 | CCCc1cc(=O)oc2cc(C)c3c(C(C)(C)C)coc3c12 | inactive: 7.18%
57 | O=C(CCn1c(=O)c2cccn2c2cccnc21)NCc1ccccc1F | inactive: 11.3%
58 | COc1cccc(NC(=O)c2ccc3[nH]c(C)cc(=O)c3c2)c1 | inactive: 20.4%
59 | O=C(COc1ccc(F)cc1)Nc1ccccc1OCc1cc(=O)n2ccccc2n1 | inactive: 11.7%
60 | COc1ccc(-c2noc(-c3ccc(NC4CCCCC4)c([N+](=O)[O-])c3)n2)cc1 | inactive: 1.42%
61 | COC(=O)c1ccc(Cn2nc(-c3ccc(C)cc3)ccc2=O)cc1 | inactive: 5.88%
62 | CCOc1ccc(N(C(C)C(=O)NCCSc2ccc(C)cc2)S(C)(=O)=O)cc1 (configuration not stated) | inactive: 0.554%
63 | COc1cccc(C(c2sc3nc(-c4ccco4)nn3c2O)N2CCN(c3ccccc3F)CC2)c1 (configuration not stated) | inactive: -0.473%
64 | Cc1cc(C)cc(NC(=O)C(=O)NCC(c2cccnc2)N2CCN(c3ccccc3)CC2)c1 (configuration not stated) | inactive: 3.15%
65 | COc1ccc(-n2ccn(Cc3ccccc3C)c(=O)c2=O)cc1 | inactive: -5.5%
66 | CCc1cc2c(cc3c(=O)n(CC(=O)NC4CCCCC4)ncn32)s1 | inactive: 6.42%
67 | O=C1CN(C(=O)Nc2ccccc2Cl)C(c2ccccc2)c2c(sc3c2CCCC3)N1 (configuration not stated) | inactive: 5.05%
68 | COc1ccc(-c2cc(C(=O)NCCc3ccc(OC)c(OC)c3)c3ccccc3n2)cc1 | inactive: 0.801%
69 | COc1ccc(NC(=O)C(C)Sc2cc(-c3ccccc3)nc(C)n2)cc1Cl (configuration not stated) | inactive: 8.02%
70 | CCCNC(=O)C1CCN(Cc2cc3ccccc3n2Cc2ccccc2)CC1 | inactive: -20.6%
71 | CC1(C)CC(=O)c2cc(-c3nc(-c4ccc(Cl)cc4)cs3)c(=O)n(-c3cccc(F)c3)c2C1 | inactive: 1.61%
72 | COc1cc(C)ccc1OCCSc1nc2ccc(NC(=O)c3ccc(C)cc3)cc2s1 | inactive: 4.05%
73 | COc1ccccc1NC(=O)CCn1cnc2onc(-c3ccc(F)cc3)c2c1=O | inactive: -19%
74 | O=C(CN1C(=O)CC(c2ccco2)Sc2ccccc21)Nc1ccc(Br)cc1 (configuration not stated) | inactive: -2.48%
75 | CCCSc1nnc2c(n1)OC(c1ccc(OCC(=O)O)cc1)Nc1ccccc1-2 (configuration not stated) | inactive: 1.59%

Row | Structure (SMILES) | activity change, negative = cytotoxicity
76 | COc1ccccc1-c1noc(-c2ccc(NCc3cccnc3)c([N+](=O)[O-])c2)n1 | inactive: 0.488%
77 | COc1ccc(-c2ccc(CCC(=O)O)n2CC(=O)Nc2cccc(Cl)c2C)cc1 | inactive: 4.05%
78 | CC(=O)c1cccc(Nc2nn(-c3ccc(OC(F)(F)F)cc3)nc2C(C)=O)c1 | inactive: 4.08%
79 | COc1ccc(CNC(=O)CCc2c(C)nc3nc(CNC(=O)OC(C)(C)C)nn3c2C)cc1 | inactive: -19.9%
80 | Cc1c(C(=O)N(Cc2ccc(N(C)C)cc2)Cc2ccco2)oc2cc(Br)ccc12 | inactive: 1.67%
81 | Cn1cc(C(=O)NCCc2ccccc2)c(=O)c2cc(S(=O)(=O)N3CCCCCC3)ccc21 | inactive: -17.6%
82 | CCN(Cc1ccccc1)Cc1c(O)ccc2c(=O)c(-c3ccccc3Cl)coc12 | inactive: -19%
83 | CCn1cc(C(=O)NCCCOC(C)C)c(=O)c2cc(S(=O)(=O)N(C)C3CCCCC3)ccc21 | inactive: -17.9%
84 | O=C(Nc1cc(-c2nc3cc(Cl)ccc3o2)ccc1Cl)c1cc2ccccc2o1 | inactive: 1.11%
85 | CCOC(=O)c1c(-c2ccccc2)csc1NC(=O)c1cc(-c2cccc(Cl)c2)on1 | inactive: 1.42%
86 | Cc1ccc(C)c(N2CCN(S(=O)(=O)c3ccc4c(c3)n(C)c(=O)c(=O)n4C)CC2)c1 | inactive: 18.5%
87 | O=C(NCc1ccccc1)c1ccc(Cn2c(=O)c3cccn3c3cccnc32)cc1 | inactive: 4.47%
88 | CC(=O)c1cccc(NC(=O)c2ccc3c(c2)c(C)c(C)n3Cc2ccc(Cl)cc2)c1 | inactive: -21.7%
89 | COc1cc(OC)c(NC(=O)CSCc2nc(-c3ccc(OC)c(OC)c3)no2)cc1Cl | inactive: 2.76%
90 | CCOc1ccccc1NC(=O)CN1Cc2ccccc2C1=O | inactive: -4.32%
91 | COC(=O)c1ccc(CN(Cc2ccc(OC)c(OC)c2)S(=O)(=O)c2ccc(F)c(C(=O)Nc3cc(C)ccc3C)c2)cc1 | inactive: -1.11%
92 | CC(Oc1ccccc1)C(=O)Nc1ccc(C(=O)OCc2cc(=O)n3ccsc3n2)cc1 (configuration not stated) | inactive: 14.6%
93 | Cc1cccc(C(=O)NCC(=O)OCc2cc(=O)n3nc(C)sc3n2)c1 | inactive: -0.73%
94 | N#Cc1nc(/C=C/c2ccc(F)cc2)oc1N1CCCCC1 | inactive: -0.567%
95 | CCc1nn2c(=O)cc(COC(=O)c3cccs3)nc2s1 | inactive: 7.36%
96 | Cc1nc(SCC(=O)Nc2ccc(Cl)cc2C(F)(F)F)[nH]c(=O)c1Cc1ccccc1 | inactive: 22.6%
97 | Cc1ccc(Cn2cc3c(n2)-c2c(oc(C(=O)Nc4ccc(F)cc4F)c2C)CC3)cc1 | inactive: 10.7%
